The target in this test is Recombinant heterodimeric HCV NS3/NS4A protease (strain 1a) (Hepatitis C virus genotype 1a, UniProt P27958). Briefly: HCV continuous assay (spectrophotometric HCV NS3/NS4A serine protease inhibition assay). The settings on record: Table 1; ranges of Ki* values in HCV continuous assay. The format is biochemical, HCV (strain 1a). The text has this:
The present invention relates to novel HCV protease inhibitors. This utility can be manifested in their ability to inhibit the HCV NS3/NS4a serine protease.
Assay for HCV Protease Inhibitory Activity:
• Spectrophotometric Assay: Spectrophotometric assay for the HCV serine protease can be performed on the inventive compounds by following the procedure described by R. Zhang et al, Analytical Biochemistry, 270 (1999) 268-275, the disclosure of which is incorporated herein by reference. The assay based on the proteolysis of chromogenic ester substrates is suitable for the continuous monitoring of HCV NS3 protease activity. The substrates are derived from the P side of the NS5A-NS5B junction sequence (Ac-DTEDWX(Nva), where X=A or P) whose C-terminal carboxyl groups are esterified with one of four different chromophoric alcohols (3- or 4-nitrophenol, 7-hydroxy-4-methyl-coumarin, or 4-phenylazophenol). Illustrated below are the synthesis, characterization and application of these novel spectrophotometric ester substrates to high throughput screening and detailed kinetic evaluation of HCV NS3 protease inhibitors. Materials and Methods:
Materials: Chemical reagents for assay related buffers are obtained from Sigma Chemical Company (St. Louis, Mo.). Reagents for peptide synthesis were from Aldrich Chemicals, Novabiochem (San Diego, Calif.), Applied Biosystems (Foster City, Calif.) and Perseptive Biosystems (Framingham, Mass.). Peptides are synthesized manually or on an automated ABI model 431A synthesizer (from Applied Biosystems). UV/VIS Spectrometer model LAMBDA 12 was from Perkin Elmer (Norwalk, Conn.) and 96-well UV plates were obtained from Corning (Corning, N.Y.). The prewarming block can be from USA Scientific (Ocala, Fla.) and the 96-well plate vortexer is from Labline Instruments (Melrose Park, Ill.). […] Protein concentrations are determined by the Biorad dye method using recombinant HCV protease standards previously quantified by amino acid analysis. Prior to assay initiation, the enzyme storage buffer (50 mM sodium phosphate pH 8.0, 300 mM NaCl, 10% glycerol, 0.05% lauryl maltoside and 10 mM DTT) is exchanged for the assay buffer (25 mM MOPS pH 6.5, 300 mM NaCl, 10% glycerol, 0.05% lauryl maltoside, 5 μM EDTA and 5 μM DTT) utilizing a Biorad Bio-Spin P-6 prepacked column. • Substrate Synthesis and Purification: The synthesis of the substrates is done as reported by R. Zhang et al, (ibid.) and is initiated by anchoring Fmoc-Nva-OH to 2-chlorotrityl chloride resin using a standard protocol (K. Barlos et al, Int. J. Pept. Protein Res., 37 (1991), 513-520). The peptides are subsequently assembled, using Fmoc chemistry, either manually or on an automatic ABI model 431 peptide synthesizer. […] The combined filtrate and DCM wash is evaporated azeotropically (or repeatedly extracted by aqueous Na2CO3 solution) to remove the acid used in cleavage. The DCM phase is dried over Na2SO4 and evaporated.
The ester substrates are assembled using standard acid-alcohol coupling procedures (K. Holmber et al, Acta Chem. Scand., B33 (1979) 410-412). Peptide fragments are dissolved in anhydrous pyridine (30-60 mg/ml) to which 10 molar equivalents of chromophore and a catalytic amount (0.1 eq.) of para-toluenesulfonic acid (PTSA) were added. Dicyclohexylcarbodiimide (DCC, 3 eq.) is added to initiate the coupling reactions. Product formation is monitored by HPLC and can be found to be complete following 12-72 hour reaction at room temperature. Pyridine solvent is evaporated under vacuum and further removed by azeotropic evaporation with toluene.
For orientation: Ki means the dissociation constant of the complex between target and ligand, obtained from inhibition or displacement. As to `C=CCNC(=O)C(=O)C(CCCC)NC(=O)[C@@H]1[C@@H]2[C@H](CN1C(=O)[C@@H](NC(=O)N[C@H](CN1CCCN(C)S1(=O)=O)C(C)(C)C)C(C)(C)C)C2(C)C` (stereo partly drawn) [Compound 5132], the Ki was ≤ 50 nM.

In the case of `C=CCNC(=O)C(=O)C(CCCC)NC(=O)[C@@H]1[C@@H]2[C@H](CN1C(=O)[C@@H](NC(=O)N[C@H](CN1CCCS1(=O)=O)C(C)(C)C)C1CCCCC1)C2(C)C` (stereo partly drawn) [Compound 5133], the Ki was ≤ 50 nM. For `C=CCNC(=O)C(=O)C(CCC)NC(=O)[C@@H]1[C@@H]2[C@H](CN1C(=O)[C@@H](NC(=O)N[C@H](CN1CCCS1(=O)=O)C(C)(C)C)C1CCCCC1)C2(C)C` (stereo partly drawn) [Compound 5134], the Ki is ≤ 50 nM.

`C=CCNC(=O)C(=O)C(CC1CC1)NC(=O)[C@@H]1[C@@H]2[C@H](CN1C(=O)[C@@H](NC(=O)N[C@H](CN1CCCS1(=O)=O)C(C)(C)C)C1CCCCC1)C2(C)C` (stereo partly drawn) [Compound 5135]: the inhibitory constant (Ki) is ≤ 50 nM. In the case of `CCCC(NC(=O)[C@@H]1[C@@H]2[C@H](CN1C(=O)[C@@H](NC(=O)N[C@H](CN1CCCS1(=O)=O)C(C)(C)C)C1CCCCC1)C2(C)C)C(=O)C(=O)NC` (stereo partly drawn) [Compound 5136], the Ki was ≤ 50 nM.

Regarding `CCCC(NC(=O)[C@@H]1[C@@H]2[C@H](CN1C(=O)[C@@H](NC(=O)N[C@H](CN1CCCN(C)S1(=O)=O)C(C)(C)C)C(C)(C)C)C2(C)C)C(=O)C(N)=O` (stereo partly drawn) [Compound 5137], the Ki was ≤ 50 nM.

As to `CC(C)(C)[C@@H](CN1CCCS1(=O)=O)NC(=O)N[C@H](C(=O)N1C[C@H]2[C@@H]([C@H]1C(=O)NC(CC1CCC1)C(=O)C(N)=O)C2(C)C)C1CCCCC1` (stereo partly drawn) [Compound 5138], the inhibitory constant (Ki) was ≤ 50 nM. In the case of `C=CCNC(=O)C(=O)C(CCC)NC(=O)[C@@H]1[C@@H]2[C@H](CN1C(=O)[C@@H](NC(=O)N[C@H](CN1Cc3sccc3S1(=O)=O)C(C)(C)C)C(C)(C)C)C2(C)C` (stereo partly drawn) [Compound 5139], the Ki was ≤ 50 nM. In the case of `CC(C)(C)[C@@H](CN1CCCS1(=O)=O)NC(=O)N[C@H](C(=O)N1C[C@H]2[C@@H]([C@H]1C(=O)NC(CC1CC1)C(=O)C(N)=O)C2(C)C)C1CCCCC1` (stereo partly drawn) [Compound 5140], the Ki is ≤ 50 nM.

Consider `C=CCNC(=O)C(=O)C(CCC(F)(F)F)NC(=O)[C@@H]1[C@@H]2[C@H](CN1C(=O)[C@@H](NC(=O)N[C@H](CN1CCCS1(=O)=O)C(C)(C)C)C1CCCCC1)C2(C)C` (stereo partly drawn) [Compound 5141], for which the Ki was ≤ 50 nM. With `CNC(=O)C(=O)C(CC1CC1)NC(=O)[C@@H]1[C@@H]2[C@H](CN1C(=O)[C@@H](NC(=O)N[C@H](CN1CCCS1(=O)=O)C(C)(C)C)C1CCCCC1)C2(C)C` (stereo partly drawn) [Compound 5142], the Ki was ≤ 50 nM. `C=CCNC(=O)C(=O)C(CC1CCC1)NC(=O)[C@@H]1[C@@H]2[C@H](CN1C(=O)[C@@H](NC(=O)N[C@H](CN1CCCS1(=O)=O)C(C)(C)C)C1CCCCC1)C2(C)C` (stereo partly drawn) [Compound 5143]: the inhibition constant (Ki) was ≤ 50 nM. The same measure for `C=CCNC(=O)C(=O)C(CC1CCC1)NC(=O)[C@@H]1[C@@H]2[C@H](CN1C(=O)[C@@H](NC(=O)N[C@H](CN1CCCS1(=O)=O)C(C)(C)C)C(C)(C)C)C2(C)C` (stereo partly drawn) [Compound 5144]: ≤ 50 nM; for `C#CCCC(NC(=O)[C@@H]1[C@@H]2[C@H](CN1C(=O)[C@@H](NC(=O)N[C@H](CN1CCCS1(=O)=O)C(C)(C)C)C(C)(C)C)C2(C)C)C(=O)C(=O)NCCC` (stereo partly drawn) [Compound 5145]: ≤ 50 nM. As to `CN1CCN(C[C@@H](NC(=O)N[C@H](C(=O)N2C[C@H]3[C@@H]([C@H]2C(=O)NC(CC2CCC2)C(=O)C(N)=O)C3(C)C)C(C)(C)C)C(C)(C)C)S1(=O)=O` (stereo partly drawn) [Compound 5146], the Ki was ≤ 50 nM. Take `CN1CCN(C[C@@H](NC(=O)N[C@H](C(=O)N2C[C@H]3[C@@H]([C@H]2C(=O)NC(CC2CC2)C(=O)C(N)=O)C3(C)C)C(C)(C)C)C(C)(C)C)S1(=O)=O` (stereo partly drawn) [Compound 5147]: the inhibition constant (Ki) is ≤ 50 nM. The same measure for `CC(C)(C)[C@H](NC(=O)N[C@H](CN1CCNS1(=O)=O)C(C)(C)C)C(=O)N1C[C@H]2[C@@H]([C@H]1C(=O)NC(CC1CCC1)C(=O)C(N)=O)C2(C)C` (stereo partly drawn) [Compound 5148]: ≤ 50 nM; for `CC(C)(C)[C@H](NC(=O)N[C@H](CN1CCNS1(=O)=O)C(C)(C)C)C(=O)N1C[C@H]2[C@@H]([C@H]1C(=O)NC(CC1CC1)C(=O)C(N)=O)C2(C)C` (stereo partly drawn) [Compound 5149]: ≤ 50 nM.

`C=CCNC(=O)C(=O)C(CCC)NC(=O)[C@@H]1[C@@H]2[C@H](CN1C(=O)[C@@H](NC(=O)N[C@H](CN1CCN(C)S1(=O)=O)C(C)(C)C)C(C)(C)C)C2(C)C` (stereo partly drawn) [Compound 5150]: the Ki is ≤ 50 nM. For `CC(C)(C)[C@H](NC(=O)N[C@H](CN1Cc2sccc2S1(=O)=O)C(C)(C)C)C(=O)N1C[C@H]2[C@@H]([C@H]1C(=O)NC(CC1CC1)C(=O)C(N)=O)C2(C)C` (stereo partly drawn) [Compound 5151], the inhibition constant Ki is ≤ 50 nM. The result for `CC(C)(C)[C@H](NC(=O)N[C@H](CN1Cc2sccc2S1(=O)=O)C(C)(C)C)C(=O)N1C[C@H]2[C@@H]([C@H]1C(=O)NC(CC1CCC1)C(=O)C(N)=O)C2(C)C` (stereo partly drawn) [Compound 5152] reads ≤ 50 nM. The result for `C=CCNC(=O)C(=O)C(CC1CC1)NC(=O)[C@@H]1[C@@H]2[C@H](CN1C(=O)[C@@H](NC(=O)N[C@H](CN1Cc3sccc3S1(=O)=O)C(C)(C)C)C(C)(C)C)C2(C)C` (stereo partly drawn) [Compound 5153] reads ≤ 50 nM; that for `C=CCNC(=O)C(=O)C(CCCC)NC(=O)[C@@H]1[C@@H]2[C@H](CN1C(=O)[C@@H](NC(=O)N[C@H](CN1Cc3sccc3S1(=O)=O)C(C)(C)C)C(C)(C)C)C2(C)C` (stereo partly drawn) [Compound 5154], ≤ 50 nM. The result for `C#CCCC(NC(=O)[C@@H]1[C@@H]2[C@H](CN1C(=O)[C@@H](NC(=O)N[C@H](CN1CCN(C)S1(=O)=O)C(C)(C)C)C(C)(C)C)C2(C)C)C(=O)C(=O)NCC=C` (stereo partly drawn) [Compound 5155] reads ≤ 50 nM; that for `C#CCCC(NC(=O)[C@@H]1[C@@H]2[C@H](CN1C(=O)[C@@H](NC(=O)N[C@H](CN1CCNS1(=O)=O)C(C)(C)C)C(C)(C)C)C2(C)C)C(=O)C(=O)NCC=C` (stereo partly drawn) [Compound 5156], ≤ 50 nM.

Take `C=CCNC(=O)C(=O)C(CCC(F)(F)F)NC(=O)[C@@H]1[C@@H]2[C@H](CN1C(=O)[C@@H](NC(=O)N[C@H](CN1CCN(C)S1(=O)=O)C(C)(C)C)C(C)(C)C)C2(C)C` (stereo partly drawn) [Compound 5157]: the Ki is ≤ 50 nM. Take `C=CCNC(=O)C(=O)C(CC1CC1)NC(=O)[C@@H]1[C@@H]2[C@H](CN1C(=O)[C@@H](NC(=O)N[C@H](CN1CCN(C)S1(=O)=O)C(C)(C)C)C(C)(C)C)C2(C)C` (stereo partly drawn) [Compound 5158]: the inhibitory constant (Ki) is ≤ 50 nM. The same measure for `C=CCNC(=O)C(=O)C(CC1CCC1)NC(=O)[C@@H]1[C@@H]2[C@H](CN1C(=O)[C@@H](NC(=O)N[C@H](CN1CCN(C)S1(=O)=O)C(C)(C)C)C(C)(C)C)C2(C)C` (stereo partly drawn) [Compound 5159]: ≤ 50 nM; for `CCCCC(NC(=O)[C@@H]1[C@@H]2[C@H](CN1C(=O)[C@@H](NC(=O)N[C@H](CN1CCCN(C)S1(=O)=O)C(C)(C)C)C(C)(C)C)C2(C)C)C(=O)C(N)=O` (stereo partly drawn) [Compound 5160]: ≤ 50 nM. Consider `CCCCC(NC(=O)[C@@H]1[C@@H]2[C@H](CN1C(=O)[C@@H](NC(=O)N[C@H](CN1Cc3sccc3S1(=O)=O)C(C)(C)C)C(C)(C)C)C2(C)C)C(=O)C(N)=O` (stereo partly drawn) [Compound 5161], for which the Ki is ≤ 50 nM. The same measure for `C=CCNC(=O)C(=O)C(CCC)NC(=O)[C@@H]1[C@@H]2[C@H](CN1C(=O)[C@@H](NC(=O)N[C@H](CN1C(=O)c3ccccc3S1(=O)=O)C(C)(C)C)C(C)(C)C)C2(C)C` (stereo partly drawn) [Compound 5162]: ≤ 50 nM; for `CC(C)(C)[C@H](NC(=O)N[C@H](CN1C(=O)c2ccccc2S1(=O)=O)C(C)(C)C)C(=O)N1C[C@H]2[C@@H]([C@H]1C(=O)NC(CC1CCC1)C(=O)C(N)=O)C2(C)C` (stereo partly drawn) [Compound 5163]: ≤ 50 nM.

Consider `C=CCNC(=O)C(=O)C(CCCC)NC(=O)[C@@H]1[C@@H]2[C@H](CN1C(=O)[C@@H](NC(=O)N[C@H](CN1Cc3ccccc3S1(=O)=O)C(C)(C)C)C(C)(C)C)C2(C)C` (stereo partly drawn) [Compound 5164], for which the Ki was ≤ 50 nM.
